Test results taken from PubChem BioAssay (NCATS).
The shares of active, inactive and inconclusive entries below differ from those in the screen. Unless noted, the call rests on the fitted dose curve; in most records, active means well fitted curve in the direction sought with a large enough effect; inconclusive means small, poorly fitted or top-dose-only effect, or another doubt; inactive means no such curve, though single readings can be large; an effect the other way counts as inactive or inconclusive. For part of these data: Potencies beside an inconclusive call are fits to weak or partial responses and may not hold up. For part of these data: A note “side channel” means that the fit belongs to a control or component signal, not to the main read-out.

Legend:
[1] = NFAT Signaling Pathway (AID 444; active means well fitted curve in either direction with a large enough effect, not every such curve was filed as active; inconclusive means small, poorly fitted or top-dose-only effect, or another doubt;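 further: carbachol stimulus at about its EC50 of 1 µM final; on the % scale 0 is the no-effect control and ±100 the full control effect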); conditions: Jurkat NFAT-bla M1, carbachol, beta-lactamase ratio, 5 h; at 17.2 µM (top of the series)
Outline: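 Jurkat cells carrying an NFAT-driven β-lactamase reporter and co-transfected muscarinic M1 receptor were treated with compound plus carbachol (1 uM final, an EC50 level) for 5 h at 37 °C. CCF4 loading followed for 1 h at RT; 460/530 nm ratio gave %activity.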

[2] = target: Ubiquitin carboxyl-terminal hydrolase 1 (Homo sapiens) (UniProt O94782); assay: Inhibitors of USP1/UAF1: Pilot qHTS (AID 504865);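 further: rhodamine fluorescence freed from ubiquitin-rhodamine substrate followed over time; potency means the concentration at half of the fitted maximal effect; nearly all actives have a fitted effect of over 35% in size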
Outline: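 1nM USP1/UAF1 + cpd, 15 min RT; start w/ Ub-Rho 150nM final; kinetic FL 480/540 nm, 6 reads q60 s. Buffer 50mM HEPES pH 7.8, 0.5mM EDTA, 1mM TCEP, 0.01% Tween-20, 0.1 mg/ml BSA.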

[3] = target: Estrogen receptor (Homo sapiens) (UniProt P03372); assay: qHTS assay for small molecule antagonists of estrogen receptor alpha signaling (AID 588513; active means well fitted curve in the direction sought with a large enough effect in the signal ratio, with a control signal flat, not every such curve was filed as active; inconclusive means small, poorly fitted or top-dose-only effect, or effect the other way, or a change in a side signal; inactive means no such curve, though single readings can be large or run the other way; the % refers to the signal ratio; further: potency means the concentration at half of the fitted maximal effect); conditions: ER-alpha-UAS-bla HEK293, beta-lactamase ratio, antagonist mode; activity, negative = inhibition: at 76.9 µM (top of the series)
Outline: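 Beta-lactamase reporter, antagonist mode, HEK 293 GripTite cells; 0.5nM E2 stimulus, 18 h, 37 C; CCF4 dye 2 h RT; fluorescence. IC50 and efficacy from Hill fits, normalized to E2 and DMSO.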

[4] = target: Estrogen receptor (Homo sapiens) (UniProt P03372); assay: qHTS assay for small molecule agonists of estrogen receptor alpha signaling (AID 588514; calls by dose curve; further: potency means the concentration at half of the fitted maximal effect; nearly all actives have a fitted effect of over 70% in size); conditions: ER-alpha-UAS-bla HEK293, beta-lactamase ratio, 18 h; activation: at 76.8 µM (top of the series), percent of full estradiol response, vehicle zero
Outline: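 ER-alpha-UAS-bla GripTite HEK 293 cells in medium with 2% charcoal/dextran-treated FBS were treated with compound titrations at 37 C for 18 hrs; beta-lactamase reporter read by CCF4 fluorescence after 2 hrs at RT.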

[5] = target: Peroxisome proliferator-activated receptor delta (Homo sapiens) (UniProt Q03181); assay: qHTS assay for small molecule agonists of peroxisome proliferator-activated receptor delta signaling (AID 588534; calls by dose curve; further: potency means the concentration at half of the fitted maximal effect); conditions: HEK293T PPARdelta-UAS-bla, beta-lactamase ratio, 18 h; activation: at 76.7 µM (top of the series)
Outline: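 Cell-based beta-lactamase reporter assay run in agonist mode: cells seeded and incubated 5 hrs at 37 C, compounds added and incubated 18 hrs at 37 C. CCF4 dye fluorescence read after 2 hrs at RT; EC50 and efficacy from Hill fits.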

[6] = target: Peroxisome proliferator-activated receptor delta (Homo sapiens) (UniProt Q03181); assay: qHTS assay for small molecule antagonists of peroxisome proliferator-activated receptor delta signaling (AID 588535; active means well fitted inhibition curve with a large enough effect in the signal ratio, with a control signal flat, not every such curve was filed as active; inconclusive means small, poorly fitted or top-dose-only effect, or effect the other way, or a change in a side signal; inactive means no such curve, though single readings can be large or run the other way; the % refers to the signal ratio; further: potency means the concentration at half of the fitted maximal effect); conditions: HEK293T PPARd-UAS-bla, beta-lactamase FRET ratio, 18 h; activity change, negative = inhibition: at 76.7 µM (top of the series)
Outline: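 GeneBLAzer PPAR-delta-UAS-bla HEK293T cells in medium with 2% charcoal/dextran FBS were preincubated 5 hrs at 37 C, then given compounds, incubated 18 hrs at 37 C, and read by CCF4 beta-lactamase fluorescence; IC50 from Hill fits.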

[7] = target: Peroxisome proliferator-activated receptor gamma (Homo sapiens) (UniProt P37231); assay: qHTS assay for small molecule agonists of peroxisome proliferator-activated receptor gamma signaling (AID 588536; active means well fitted curve in the direction sought with a large enough effect in the signal ratio, with a control signal flat, not every such curve was filed as active; inconclusive means small, poorly fitted or top-dose-only effect, or effect the other way, or a change in a side signal; inactive means no such curve, though single readings can be large or run the other way; the % refers to the signal ratio; further: potency means the concentration at half of the fitted maximal effect); conditions: HEK293 PPARg-UAS-bla, beta-lactamase ratio, 16 h; activation: at 76.7 µM (top of the series), percent of rosiglitazone response, DMSO as zero
Outline: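 PPAR-gamma-UAS-bla HEK293 cells in medium with 1% charcoal/dextran-treated FBS were exposed to compounds for 16 h at 37 C. Beta-lactamase activity was read with CCF4 substrate (405 nm excitation, 460/530 nm emission).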

[8] = target: Peroxisome proliferator-activated receptor gamma (Homo sapiens) (UniProt P37231); assay: qHTS assay for small molecule antagonists of peroxisome proliferator-activated receptor gamma signaling (AID 588537; active means well fitted inhibition curve with a large enough effect in the signal ratio, with a control signal flat, not every such curve was filed as active; inconclusive means small, poorly fitted or top-dose-only effect, or effect the other way, or a change in a side signal; the % refers to the signal ratio;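 further: reporter cells co-stimulated with 50 nM rosiglitazone agonist during compound treatment; % of control where 0% means no effect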); conditions: HEK293 PPARg-UAS-bla, beta-lactamase ratio, antagonist mode; activity, negative = inhibition: at 76.8 µM (top of the series)
Outline: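 PPAR-gamma-UAS-bla HEK293 cells (3000/well, 1% charcoal/dextran-stripped FBS) were preincubated 6-6.5 h at 37 C, given titrated compounds, then stimulated with 50 nM rosiglitazone for 16 h. Beta-lactamase activity was read with CCF4 dye; IC50 came from Hill fits.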

[9] = target: Vitamin D3 receptor (Homo sapiens) (UniProt P11473); assay: qHTS assay for small molecule antagonists of vitamin D receptor signaling (AID 588541; calls by dose curve;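 further: receptor activated by calcitriol during compound treatment; on the % scale 0 is the no-effect control and ±100 the full control effect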); conditions: HEK293T VDR-UAS-bla, beta-lactamase ratio, antagonist mode; activity change, negative = inhibition: at 76.7 µM (top of the series)
[10] = target: Vitamin D3 receptor (Homo sapiens) (UniProt P11473); assay: qHTS assay for small molecule agonists of vitamin D receptor signaling (AID 588543; calls by dose curve;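 further: 0% = DMSO basal and 100% = reference agonist control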); conditions: HEK293T VDR-UAS-bla, beta-lactamase ratio, 16 h; activation: at 76.8 µM (top of the series)
Outline: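 β-lactamase reporter, VDR-UAS-bla HEK293T, agonist mode. Cells plated 5 h at 37 °C, compound titration 16 h at 37 °C, CCF4 dye 2 h RT, ratio 460/530 nm. Hill fit → EC50, efficacy vs 50 nM 1α,25-(OH)2D3.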

[11] = target: Thyroid hormone receptor beta (Homo sapiens) (UniProt P10828); assay: qHTS assay for small molecule antagonists of thyroid hormone receptor beta signaling (AID 588547; active means well fitted inhibition curve with a large enough effect in the signal ratio, with a control signal flat, not every such curve was filed as active; inconclusive means small, poorly fitted or top-dose-only effect, or effect the other way, or a change in a side signal; the % refers to the signal ratio;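 further: cells stimulated with 0.4 nM T3 agonist during compound exposure; on the % scale 0 is the no-effect control and ±100 the full control effect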); conditions: TR-UAS-bla HEK293, beta-lactamase ratio, antagonist mode, 18 h
Outline: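 TR-UAS-bla GripTite HEK293 cells in 2% charcoal/dextran FBS medium were preincubated 4 h at 37 C, given compound (0.59 nM to 92 uM) plus 0.4 nM T3 (final) for 18 h, then CCF4 for 2 h at RT; Hill fit gave IC50.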

[12] = target: Luciferin 4-monooxygenase (Photinus pyralis) (UniProt P08659); assay: Biochemical firefly luciferase enzyme assay for NPC (AID 624030); further: potency means the concentration at half of the fitted maximal effect; nearly all actives have a fitted effect of over 70% in size
Outline: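 Counter-screen for direct inhibition of the luciferase enzyme by approved-drug library compounds, run at 10 nM enzyme in 50 mM Tris acetate (final). Luminescence was read within 5 min of enzyme-buffer addition and normalized to PTC124 versus DMSO (0%).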

[13] = S16 Schwann cell viability assay (CellTiter-Glo assay) (AID 624031);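 further: native untransfected S16 rat Schwann cells; potency means the concentration at half of the fitted maximal effect; nearly all actives have a fitted effect of over 70% in size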
Outline: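 Counter-screen for cytotoxicity: parental S16 rat Schwann cells lacking the PMP22 reporters, treated 24 h with compound, viability from cellular ATP by CellTiter-Glo luminescence, normalized to DMSO (0%) and no-cell wells.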

[14] = S16 Schwann cell PMP22 intronic element firefly luciferase assay (AID 624032); further: potency means the concentration at half of the fitted maximal effect; nearly all actives have a fitted effect of over 30% in size
Outline: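 Rat S16 Schwann cells stably carrying a PMP22 intronic element-driven Fluc reporter were seeded overnight, then exposed to compounds for 24 h at 37 °C. Luminescence was normalized to PTC124 (positive control) and DMSO (0% activity).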

[15] = qHTS assay for small molecule agonists of the antioxidant response element (ARE) signaling pathway (AID 651741; active means well fitted activation curve with a large enough effect in the signal ratio; inconclusive means small, poorly fitted or top-dose-only effect, or effect the other way, or a change in a side signal; the % refers to the signal ratio; further: potency means the concentration at half of the fitted maximal effect); conditions: HepG2 ARE-bla reporter, beta-lactamase FRET ratio, 16 h; activation: at 96 µM (top of the series)
Outline: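 ARE-bla HepG2 cells (beta-lactamase reporter under ARE control) were plated at 2,000 cells/well, preincubated 5 h at 37 C/5% CO2, then treated with DMSO-dissolved compounds for 16 h at 37 C; LiveBLAzer B/G FRET substrate added, fluorescence read after 2 h at room temperature.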
Tags describe the fitted curve by direction and shape or compound fluorescence and quenching.

UniProt Q03181, sequence (Q03181 whole entry, looked up): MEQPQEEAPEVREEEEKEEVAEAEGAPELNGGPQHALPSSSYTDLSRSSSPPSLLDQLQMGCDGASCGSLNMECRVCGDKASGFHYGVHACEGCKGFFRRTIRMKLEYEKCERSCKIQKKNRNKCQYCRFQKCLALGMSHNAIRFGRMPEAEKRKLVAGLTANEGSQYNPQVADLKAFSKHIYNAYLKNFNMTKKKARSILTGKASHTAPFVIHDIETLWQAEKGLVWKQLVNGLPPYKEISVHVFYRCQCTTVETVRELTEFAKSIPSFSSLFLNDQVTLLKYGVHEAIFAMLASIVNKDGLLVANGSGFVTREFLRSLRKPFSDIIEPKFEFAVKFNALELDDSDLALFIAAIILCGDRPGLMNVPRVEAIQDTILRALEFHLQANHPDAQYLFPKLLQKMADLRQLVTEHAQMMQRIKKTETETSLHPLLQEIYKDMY
UniProt P03372, sequence (P03372 whole entry, looked up): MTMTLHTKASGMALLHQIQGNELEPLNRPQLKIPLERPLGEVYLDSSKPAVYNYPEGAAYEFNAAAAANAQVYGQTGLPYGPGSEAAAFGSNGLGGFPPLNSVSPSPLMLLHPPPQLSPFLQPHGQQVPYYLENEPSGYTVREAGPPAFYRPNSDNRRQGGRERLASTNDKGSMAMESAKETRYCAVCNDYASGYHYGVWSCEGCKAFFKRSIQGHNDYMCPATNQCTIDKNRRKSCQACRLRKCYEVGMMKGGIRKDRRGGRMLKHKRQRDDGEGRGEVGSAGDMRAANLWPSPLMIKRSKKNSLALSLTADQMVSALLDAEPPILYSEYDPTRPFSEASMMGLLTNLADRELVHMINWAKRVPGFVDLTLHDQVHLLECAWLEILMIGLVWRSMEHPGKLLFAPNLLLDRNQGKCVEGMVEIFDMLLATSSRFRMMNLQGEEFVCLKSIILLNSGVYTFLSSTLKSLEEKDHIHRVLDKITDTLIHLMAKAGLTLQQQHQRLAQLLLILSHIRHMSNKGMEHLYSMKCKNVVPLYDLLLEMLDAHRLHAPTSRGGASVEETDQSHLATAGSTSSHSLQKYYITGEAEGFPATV
UniProt P08659, sequence (P08659 whole entry, looked up): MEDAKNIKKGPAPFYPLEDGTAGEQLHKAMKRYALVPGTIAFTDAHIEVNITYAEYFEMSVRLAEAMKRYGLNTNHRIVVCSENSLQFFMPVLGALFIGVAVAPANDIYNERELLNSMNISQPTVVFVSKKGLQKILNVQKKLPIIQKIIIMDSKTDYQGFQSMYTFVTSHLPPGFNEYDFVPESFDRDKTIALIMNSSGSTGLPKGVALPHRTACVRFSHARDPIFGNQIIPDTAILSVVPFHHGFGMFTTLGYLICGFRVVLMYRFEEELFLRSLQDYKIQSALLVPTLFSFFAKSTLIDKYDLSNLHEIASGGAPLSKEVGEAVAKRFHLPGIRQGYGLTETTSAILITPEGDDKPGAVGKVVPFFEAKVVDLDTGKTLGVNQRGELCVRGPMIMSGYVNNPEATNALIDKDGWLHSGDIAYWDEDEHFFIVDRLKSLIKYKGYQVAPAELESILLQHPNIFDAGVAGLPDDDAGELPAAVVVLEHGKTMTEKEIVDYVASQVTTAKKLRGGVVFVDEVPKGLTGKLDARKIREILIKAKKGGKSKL
UniProt O94782, sequence (O94782 whole entry, looked up): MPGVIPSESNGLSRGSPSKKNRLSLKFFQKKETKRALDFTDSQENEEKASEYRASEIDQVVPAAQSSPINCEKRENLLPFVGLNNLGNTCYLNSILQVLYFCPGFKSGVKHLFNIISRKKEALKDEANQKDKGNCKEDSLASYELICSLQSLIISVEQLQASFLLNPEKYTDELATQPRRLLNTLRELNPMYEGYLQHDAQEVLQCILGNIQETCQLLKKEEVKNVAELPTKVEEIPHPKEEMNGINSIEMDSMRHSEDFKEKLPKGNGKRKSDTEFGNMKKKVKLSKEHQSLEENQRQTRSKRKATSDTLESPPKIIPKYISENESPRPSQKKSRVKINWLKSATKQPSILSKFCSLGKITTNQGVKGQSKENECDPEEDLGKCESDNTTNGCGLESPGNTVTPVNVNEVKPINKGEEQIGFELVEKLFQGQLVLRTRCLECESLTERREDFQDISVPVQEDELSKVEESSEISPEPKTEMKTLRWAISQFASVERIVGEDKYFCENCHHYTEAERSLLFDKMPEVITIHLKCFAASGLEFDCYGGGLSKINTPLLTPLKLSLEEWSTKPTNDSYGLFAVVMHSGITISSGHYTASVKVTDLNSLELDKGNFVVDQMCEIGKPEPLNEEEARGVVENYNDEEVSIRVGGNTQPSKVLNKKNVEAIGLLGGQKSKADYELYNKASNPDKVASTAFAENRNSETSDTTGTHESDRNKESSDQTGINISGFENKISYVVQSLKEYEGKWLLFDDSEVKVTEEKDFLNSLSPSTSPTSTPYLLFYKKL
UniProt P10828, sequence (P10828 whole entry, looked up): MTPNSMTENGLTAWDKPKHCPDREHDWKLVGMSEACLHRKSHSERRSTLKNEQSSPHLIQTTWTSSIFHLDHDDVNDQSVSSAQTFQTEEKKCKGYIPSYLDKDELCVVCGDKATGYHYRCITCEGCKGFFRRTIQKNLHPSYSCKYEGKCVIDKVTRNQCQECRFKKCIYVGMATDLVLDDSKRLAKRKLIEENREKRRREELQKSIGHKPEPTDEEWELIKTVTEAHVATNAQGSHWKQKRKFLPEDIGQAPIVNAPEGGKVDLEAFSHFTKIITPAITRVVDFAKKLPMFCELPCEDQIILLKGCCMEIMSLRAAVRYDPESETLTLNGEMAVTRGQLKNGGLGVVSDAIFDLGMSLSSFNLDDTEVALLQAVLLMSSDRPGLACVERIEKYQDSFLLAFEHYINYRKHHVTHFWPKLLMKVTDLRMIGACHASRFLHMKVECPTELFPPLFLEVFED

CCCc1c(OCCCCc2nn[nH]n2)ccc(C(C)=O)c1O
inconclusive: activity change, negative = inhibition [1] 29.5% [activator] | Potency [2] 56.2 µM [inhibitor, partial curve, poor fit] | Potency [3] 14.1 µM [fluorescent, side channel, partial curve, poor fit] | Potency [4] 25.1 µM [fluorescent, side channel, partial curve] | Potency [5] 14.1 µM [fluorescent, side channel, full curve] | Potency [6] 20 µM [fluorescent, side channel, partial curve, poor fit] | Potency [7] 3.16 µM [side channel, falling, full curve, poor fit] | activity, negative = inhibition [8] -43.8% | activity change, negative = inhibition [9] 15.4% | activation [10] -9.6% | activity change % (negative = inhibition) [11] 35.1% | Potency [12] 28.7 µM [inhibitor, partial curve] | Potency [13] 0.114 µM [cytotoxic, full curve, poor fit] | Potency [14] 2.03 µM [inhibitor, partial curve, poor fit] | Potency [15] 61.1 µM [activator, partial curve]
